Experimental data published in US6420131B1, “Use of fluorescein aryl ethers in high throughput cytochrome P450 inhibition assays” (Gentest Corporation, priority 1999, dated 2002).

Substrate: O=C(OCc1ccccc1)c1ccccc1-c1c2ccc(=O)cc-2oc2cc(OCc3ccccc3)ccc12
Assay: Enzyme kinetics of substrate turnover by cDNA-expressed CYP3A4
Format: biochemical, human
Settings: other: CYP3A4, apparent Km
Protocol: The evaluation of compounds of Formula I were performed by measuring the kinetics of turnover using cDNA-expressed cytochromes P450 CYP3A4 and CYP2C8. Vmax and Km values are important for the optimization of the assay conditions and for setting the parameters for inhibition experiments.
Example Compound Ia. […] Final incubation volume was 0.2 ml. […] The activity was quantitated by comparing to a standard curve of fluorescein. Apparent Km and Vmax values were calculated by non-linear regression using SigmaPlot software.

B1: human CYP3A4 (Homo sapiens) (protein)
chain: MALIPDLAMETWLLLAVSLVLLYLYGTHSHGLFKKLGIPGPTPLPFLGNILSYHKGFCMFDMECHKKYGKVWGFYDGQQPVLAITDPDMIKTVLVKECYSVFTNRRPFGPVGFMKSAISIAEDEEWKRLRSLLSPTFTSGKLKEMVPIIAQYGDVLVRNLRREAETGKPVTLKDVFGAYSMDVITSTSFGVNIDSLNNPQDPFVENTKKLLRFDFLDPFFLSITVFPFLIPILEVLNICVFPREVTNFLRKSVKRMKESRLEDTQKHRVDFLQLMIDSQNSKETESHKALSDLELVAQSIIFIFAGYETTSSVLSFIMYELATHPDVQQKLQEEIDAVLPNKAPPTYDTVLQMEYLDMVVNETLRLFPIAMRLERVCKKDVEINGMFIPKGVVVMIPSYALHRDPKYWTEPEKFLPERFSKKNKDNIDPYIYTPFGSGPRNCIGMRFALMNMKLALIRVLQNFSFKPCKETQIPLKLSLGGLLQPEKPVVLKVESRDGTVSGA
notes: purchased GENTEST Corporation P202; host or cells: baculovirus/insect cells (microsomes, SUPERSOMES)
B1 gave a Km of 0.87 ± 0.12 µM.
